# The whole screen tested about 94,000 compounds, of which about 4,000 (4.3%) were called active. Inconclusive results, whose numbers are uncertain, are shown with a selection of clear calls. Calls come from the whole dose curve; as a rule, active = well fitted inhibition curve with a large enough effect; inconclusive = small, poorly fitted or top-dose-only effect; inactive = no such curve, though single readings can be large or run the other way. Where the call is inconclusive, the potency comes from a doubtful curve fit.
# Assay: Cytotoxic Profiling in NIH 3T3 Cell Line of Diverse Libraries Using Quantitative High-Throughput Screening; note: nearly all actives have a fitted effect of over 55% in size
# Conditions: NIH 3T3 viability, CellTiter-Glo ATP luminescence, 48-72 h; series mostly up to 96.7 µM
# Outline: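 First NIH 3T3 cells are plated at 400 cells/well; next compound is pinned in; then plates incubate 48 or 72 hr at 37 °C; finally CellTiter-Glo is added and luminescence read after 10 min.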
# Potency is the fitted concentration of half-maximal effect; tags give direction and shape of the fitted curve.
row,Compound,Potency
1,Cn1cc(CN2C[C@@H]3OCC(=O)N[C@@H]3C2)c2ccccc21,active: 112 µM
2,Cc1nn2c(c1-c1ccccc1N1CCCC1)N(C(=O)c1ccc(F)cc1)CCC2,"inconclusive: 50.1 µM [inhibitor, partial curve, poor fit]"
3,Fc1ccc(CN2CCC3(CC(c4cccc(C(F)(F)F)c4)=NO3)C2)cc1 (configuration not stated),"inconclusive: 50.1 µM [inhibitor, partial curve, poor fit]"
4,CC(C)=CC(=O)N1CC[C@H](NC(=O)NC2CCCCC2)[C@H]1C(=O)N[C@H](Cc1c[nH]c2ccccc12)C(N)=O,inactive
5,Cc1csc(NC(=O)c2ccc3c(c2)OCC(=O)N(Cc2cnn(C)c2)C3)n1,"inconclusive: 35.5 µM [inhibitor, full curve]"
6,COCCN1C(=O)[C@@H]2C[C@@H](CN2Cc2ccc3ccccc3n2)Oc2ccccc21,active: 100 µM
7,Cn1ncc2c(C(=O)NCC3CC3)cc(-c3ccc(Cl)nc3)nc21,"inconclusive: 50.1 µM [inhibitor, partial curve, poor fit]"
8,CCOc1ccc(C(=O)N2CCn3nc(Cc4ccccc4)cc3C2)cc1,"inconclusive: 44.7 µM [inhibitor, partial curve, poor fit]"
9,COCC(=O)N1CCC2(CC1)CCN(Cc1cccs1)c1ccccc1O2,"inconclusive: 50.1 µM [inhibitor, partial curve, poor fit]"
10,CN1CCC(NC[C@H]2Cn3c(-c4ccc5c(c4)OCCO5)cnc3CO2)CC1,"inconclusive: 100 µM [inhibitor, partial curve]"
11,CN(C)c1cccc(Oc2nnnn2[C@H]2CO[C@H]3[C@@H]2OC[C@@H]3NC(=S)Nc2cccc(C#N)c2)c1,"inconclusive: 39.8 µM [inhibitor, partial curve, poor fit]"
12,FC(F)(F)c1ccc(-c2cnc([C@@H]3COCCN3Cc3ccccn3)[nH]2)cc1,active: 39.8 µM
13,COc1ccc(CC(=O)NC2CCCN(Cc3ccc(-c4cncnc4)cc3)C2)cc1 (configuration not stated),inactive
14,O=C(NC1CCN(c2cc(-c3ccc(F)cc3)[nH]n2)C1)c1ccccc1Br (configuration not stated),"inconclusive: 50.1 µM [inhibitor, partial curve, poor fit]"
15,COc1ccccc1C(=O)NC1CCN(Cc2ccc(-c3cc(F)ccc3OC)cc2)C1 (configuration not stated),"inconclusive: 50.1 µM [inhibitor, partial curve, poor fit]"
16,CC(=O)N1CCC(N2CCOC[C@H]2c2ncc(-c3ccc(Cl)s3)[nH]2)CC1,"inconclusive: 112 µM [inhibitor, partial curve, poor fit]"
17,O=C(c1cc2ccccc2[nH]1)N1CCC(c2noc(C3CC3)n2)C1 (configuration not stated),"inconclusive: 44.7 µM [inhibitor, partial curve, poor fit]"
18,N#CCCN1C[C@H]2COc3ccccc3[C@H]2N(C(=O)c2ccc(F)cc2)CCC1=O,"inconclusive: 56.2 µM [inhibitor, partial curve, poor fit]"
19,Cc1ccc(-n2c(C3CCN(C(=O)c4cccc(C)c4)CC3)n[nH]c2=O)cc1,"inconclusive: 6.31 µM [inhibitor, full curve, poor fit]"

row,Compound,Potency
1,COc1ccc(OCC(=O)NC2CCN(c3cc(-c4ccccc4)[nH]n3)CC2)cc1,"inconclusive: 39.8 µM [inhibitor, partial curve]"
2,c1coc(-c2nc3nccc(-c4ccc5c(c4)OCCCO5)n3n2)c1,"inconclusive: 50.1 µM [inhibitor, partial curve, poor fit]"
3,COc1ccc(CC(=O)N2Cc3ccccc3CC3(CCN(C)C3)C2)cc1 (configuration not stated),inactive
4,COc1cc(NC(=O)Cn2c(-c3ccccc3)nc(C)c(CCO)c2=O)cc(OC)c1OC,"inconclusive: 70.8 µM [inhibitor, single point]"
5,CCOc1ccc(-c2cc3n(n2)CCCN(C(=O)Cn2cnc4c2c(=O)n(C)c(=O)n4C)C3)cc1,"inconclusive: 79.4 µM [inhibitor, partial curve, poor fit]"
6,COc1cccc(CN(C)Cc2ccc(-c3ccccc3)cc2)c1,"inconclusive: 28.2 µM [inhibitor, full curve, poor fit]"
7,Cn1ncc2c(C(=O)N3CCC(Cc4ccccc4)CC3)cc(-c3ccc(C(F)(F)F)cc3)nc21,"inconclusive: 35.5 µM [inhibitor, partial curve, poor fit]"
8,O=C([C@@H]1C[C@H](F)CN1S(=O)(=O)Cc1cccc(Cl)c1)N1CCc2ccccc2C1,"inconclusive: 50.1 µM [inhibitor, partial curve, poor fit]"
9,COc1ccc(OCC2CN(Cc3cccs3)C(=O)c3cccnc3O2)cc1 (configuration not stated),"inconclusive: 44.7 µM [inhibitor, partial curve, poor fit]"
10,Cc1noc2c(-c3cnn(C)c3)cc(-c3cccs3)nc12,"inconclusive: 20 µM [inhibitor, full curve, poor fit]"
11,Cc1oc(C(O)c2cccc(O)c2)nc1C(=O)Nc1ccc2c(c1)CNC2=O (configuration not stated),"inconclusive: 89.1 µM [inhibitor, single point]"
12,O=C(NCc1ccc(C(F)(F)F)cc1)C1CCCN1Cc1ccc(-c2cncnc2)cc1 (configuration not stated),"inconclusive: 39.8 µM [inhibitor, partial curve, poor fit]"
13,CN1CCN(c2nc3c(c(=O)[nH]2)CCN(Cc2ccc(C#N)cc2)CC3)CC1,inactive
14,N#Cc1cccc(C(=O)NC2CCCN(c3cc(-c4ccc(F)cc4)[nH]n3)C2)c1 (configuration not stated),"inconclusive: 17.8 µM [inhibitor, full curve, poor fit]"
15,COC(=O)CCCNC(=O)[C@@H]1[C@@H](NC(=O)Nc2cccc(OC)c2)CCN1C(=O)C=C(C)C,inactive
16,Cn1cc(-c2cccc(OC(F)(F)F)c2)c2nc(CN3CCNC(=O)C3)cn2c1=O,active: 100 µM
17,O=C(NCCc1ccccc1)N(C1CCOCC1)C1CCN(Cc2cccnc2)CC1,inactive
18,Cc1cc(F)ccc1OCC(=O)c1ccc2c(c1)N(C(C)C(=O)NCc1ccc(F)cc1)C(=O)CO2 (configuration not stated),"inconclusive: 44.7 µM [inhibitor, partial curve, poor fit]"

# Source: PubChem BioAssay AID1345082 (National Center for Advancing Translational Sciences (NCATS), 2018)
